According to PubChem BioAssay AID686979 (National Center for Advancing Translational Sciences (NCATS), 2013):
The campaign covered roughly 420,000 compounds. About 50,000 (12%) were called active. Inconclusive results, whose numbers are uncertain, are shown with a selection of clear calls. Calls come from the whole dose curve; as a rule, active = well fitted inhibition curve with a large enough effect; inconclusive = small, poorly fitted or top-dose-only effect; inactive = flat fitted curve, though single readings scatter. Potencies of inconclusive entries are left out as doubtful fits.

Experiment: qHTS for Inhibitors of human tyrosyl-DNA phosphodiesterase 1 (TDP1): qHTS in cells in presence of CPT; note: nearly all actives have a fitted effect of over 55% in size
Conditions: chicken DT40 Tdp1-/-;hTDP1 cells + 20 nM CPT, ATP luminescence, 48 h; series mostly up to 46.2 µM
Method in brief: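 Cell growth measured by CellTiter-Glo luminescence after a minimum 48 h, 37 C compound exposure with 20 nM CPT in Tdp1-knockout DT40 cells stably expressing hTDP1, seeded 400/well; qHTS titration format.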
Potency is the fitted concentration of half-maximal effect; tags give direction and shape of the fitted curve.

| SMILES | Potency |
| --- | --- |
| COC(=O)[C@H](CC(C)C)N1Cc2cc(OC)cc(OC)c2-c2ccccc2S1(=O)=O | inconclusive [inhibitor, single point] |
| O=c1[nH]c(CSc2cccc[n+]2[O-])nc2ccccc12 | active: 10.3 µM |
| CCN(Cc1cnn(C)c1)Cc1nc(C2(c3ccc(C)cc3)CCCC2)no1 | inconclusive [inhibitor, single point] |
| CCOC(=O)c1[nH]c(C)c(C(=O)OCc2ccc(C)cc2)c1C | inactive |
| COc1c(Cl)cc(C(=O)Nc2cccnc2)cc1Cl | inactive |
| CCOc1ccc(S(=O)(=O)NCc2ccccn2)c(C)c1C | active: 23.1 µM |
| O=C(NCc1ccc(F)cc1F)[C@@H]1CCCN1C(=O)[C@@H]1CCCN1C(=O)c1cccc(Cl)c1 | inconclusive [inhibitor, partial curve, poor fit] |
| CC(=O)OC[C@@H]1CN(Cc2ccccc2)C[C@H](n2cnc3c(NCC(C)C)ncnc32)O1 | inconclusive [inhibitor, partial curve, poor fit] |
| CCc1cccc(NS(=O)(=O)c2ccc3c(c2)N(C)CCO3)c1 | active: 13 µM |
| COc1ccc(N(CC(=O)N2CCc3ccccc3C2)S(C)(=O)=O)cc1Cl | inactive |
| COc1ccccc1CNC(=O)c1cnc2c(-c3ccccc3)c(C)nn2c1C | inconclusive [inhibitor, single point] |
| CCCC1=C(C(=O)OCC)C(c2cccs2)C(C#N)=C(N)O1 (stereo not given) | inconclusive [inhibitor, single point] |
| Cc1ccccc1-c1n[nH]c(=S)n1/N=C/c1ccc(-c2ccccc2Br)o1 | inconclusive [inhibitor, single point] |
| O=C(Nc1ccc(S(=O)(=O)N2CCCC2)cc1)C1CC(=O)N(CCc2ccc(F)cc2)C1 (stereo not given) | inactive |
| O=C(O)c1cccc(-n2c(/C=C/c3ccc([N+](=O)[O-])cc3)nc3ccccc3c2=O)c1 | inconclusive [inhibitor, single point] |
| CC(=O)c1ccc(NC(=S)NCC(c2ccco2)N2CCCC2)cc1 (stereo not given) | inactive |
| O=C(c1cnc(N2CCCCC2)c2ccccc12)N1CCN(c2ccc(Cl)cc2)CC1 | active: 14.6 µM |
| Nc1c(C(=O)Nc2ccc3c(c2)OCCO3)nnn1Cc1ccc(Br)cc1 | inactive |
| Cc1ccc(C2CC(C(F)(F)F)n3nc(C(=O)NCc4c(C)nn(C)c4C)c(Cl)c3N2)cc1 (stereo not given) | active: 4.61 µM |
| COC(=O)[C@]12CCCCC=C1N(Cc1ccco1)C(=O)[C@H](CC(=O)NCc1cccc3ccccc13)C2 | inconclusive [inhibitor, single point] |
